{"source": "the supplement of paper PMC3334620", "note": "The full ranking holds about 33,000 sequences; the median of “E-score (-0.5 to 0.5)” is about -0.032, and the highest 2% start at about 0.36. The list shows a part of the results."}
{"biological_target": "T1, Sko1 (UniProt Q02100)", "T1 sequence": "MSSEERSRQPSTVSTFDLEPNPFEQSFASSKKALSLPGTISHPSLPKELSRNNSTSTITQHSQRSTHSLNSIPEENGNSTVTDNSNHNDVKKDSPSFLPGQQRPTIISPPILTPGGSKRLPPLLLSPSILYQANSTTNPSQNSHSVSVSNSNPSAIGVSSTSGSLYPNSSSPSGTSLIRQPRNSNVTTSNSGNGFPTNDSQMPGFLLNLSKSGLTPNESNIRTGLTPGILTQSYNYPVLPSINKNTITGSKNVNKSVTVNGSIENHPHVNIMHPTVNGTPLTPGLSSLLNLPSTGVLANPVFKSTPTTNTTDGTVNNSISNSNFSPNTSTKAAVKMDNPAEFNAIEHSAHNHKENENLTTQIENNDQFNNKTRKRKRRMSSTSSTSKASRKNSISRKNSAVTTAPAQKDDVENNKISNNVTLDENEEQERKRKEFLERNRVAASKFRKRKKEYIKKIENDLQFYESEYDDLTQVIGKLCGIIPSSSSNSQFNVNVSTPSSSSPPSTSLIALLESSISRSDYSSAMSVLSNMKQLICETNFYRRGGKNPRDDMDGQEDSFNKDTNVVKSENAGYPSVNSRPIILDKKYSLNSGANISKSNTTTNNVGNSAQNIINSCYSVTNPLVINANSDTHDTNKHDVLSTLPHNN", "assay": "PBM E-score (8-mer binding enrichment) (E-score (-0.5 to 0.5)); higher = stronger / more preferred TF binding; most listed sequences are background and not binding sites", "conditions": "protein concentration: 200 nM; construct: GST-full length", "outline": "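GST-tagged yeast TFs (full-length or DNA-binding domain) were made by PURExpress in vitro transcription/translation and applied at about 100-200 nM to universal all-10-mer Agilent arrays. The arrays were made double-stranded by primer extension, on fresh or once-stripped slides. Bound protein was detected with fluorescent anti-GST, and scans were normalised with masliner. Each ungapped eight-base word, pooled with its reverse complement, received an E-score (modified Wilcoxon-Mann-Whitney statistic) from the Universal PBM Analysis Suite.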"}
{"sequence": "ACCGGGGG", "PBM E-score": -0.247}
{"sequence": "GTCCTAAA", "PBM E-score": 0.144}
{"sequence": "ATTAAATC", "PBM E-score": 0.118}
{"sequence": "ATTGATTA", "PBM E-score": 0.181}
{"sequence": "GTATAATA", "PBM E-score": 0.213}
{"sequence": "GTGTACAC", "PBM E-score": 0.122}
{"sequence": "TACAGGCA", "PBM E-score": 0.083}
{"sequence": "CGTGTTAC", "PBM E-score": 0.186}
{"sequence": "AGGGCATA", "PBM E-score": -0.00767}
{"sequence": "AGATCATG", "PBM E-score": 0.199}
{"sequence": "ACGCCGGG", "PBM E-score": -0.267}
{"sequence": "ACCCAGCT", "PBM E-score": -0.356}
{"sequence": "GACGTAGA", "PBM E-score": 0.42}
{"sequence": "CAATGTAG", "PBM E-score": -0.215}
{"sequence": "AGGTCACC", "PBM E-score": -0.128}
{"sequence": "AGCCAGAG", "PBM E-score": -0.262}
{"sequence": "AATAATAC", "PBM E-score": 0.214}
{"sequence": "CCTGTCTC", "PBM E-score": -0.354}
{"sequence": "AAGTGCAC", "PBM E-score": -0.0109}
{"sequence": "ACACGCTA", "PBM E-score": -0.00511}
{"sequence": "GCGACTTA", "PBM E-score": -0.0438}
{"sequence": "CTCCGTAC", "PBM E-score": -0.153}
{"sequence": "CGATAAAG", "PBM E-score": 0.0438}
{"sequence": "AGTCATGA", "PBM E-score": 0.0664}
{"sequence": "TATCAGGA", "PBM E-score": 0.066}
{"sequence": "ACAGGTAC", "PBM E-score": 0.0509}
{"sequence": "CAAACATC", "PBM E-score": 0.115}
{"sequence": "AAATAGTT", "PBM E-score": 0.0866}
{"sequence": "AACGCGCC", "PBM E-score": -0.14}
{"sequence": "CCCATTGC", "PBM E-score": -0.189}
{"sequence": "GCGGACGC", "PBM E-score": -0.0227}
{"sequence": "CTCGACTC", "PBM E-score": -0.273}
{"sequence": "ACCTACAA", "PBM E-score": 0.22}
{"sequence": "GAAATTCC", "PBM E-score": -0.11}
{"sequence": "ATGGTAAG", "PBM E-score": -0.145}
{"sequence": "CACCCTAA", "PBM E-score": 0.0798}
{"sequence": "GCGCTCAA", "PBM E-score": -0.187}
{"sequence": "CATTCTGA", "PBM E-score": -0.0118}
{"sequence": "GGATGGAC", "PBM E-score": -0.181}
{"sequence": "ACAGTTCA", "PBM E-score": 0.13}
{"sequence": "CGCCTCCA", "PBM E-score": -0.144}
{"sequence": "ATCACTGC", "PBM E-score": 0.118}
{"sequence": "GTCTGTAA", "PBM E-score": -0.0738}
{"sequence": "GAACGATC", "PBM E-score": 0.0123}
{"sequence": "TCACTGGA", "PBM E-score": -0.0849}
{"sequence": "CTACCCGC", "PBM E-score": -0.212}
{"sequence": "CCTCCCGA", "PBM E-score": -0.191}
{"sequence": "AACCATGC", "PBM E-score": -0.0424}
{"sequence": "AGTTAAAC", "PBM E-score": 0.23}
{"sequence": "ACGGCCAG", "PBM E-score": -0.237}
{"sequence": "AAAGTCAA", "PBM E-score": -0.0312}
{"sequence": "GCTCTGAC", "PBM E-score": 0.0572}
{"sequence": "CCGGAACA", "PBM E-score": -0.076}
{"sequence": "ACCACATG", "PBM E-score": 0.0825}
{"sequence": "GGCCCAAC", "PBM E-score": -0.146}
{"sequence": "TAAATGAA", "PBM E-score": 0.00474}
{"sequence": "ACTTAGGC", "PBM E-score": -0.209}
{"sequence": "ACCCCGTC", "PBM E-score": -0.289}
{"sequence": "CTGCCAAC", "PBM E-score": -0.208}
{"sequence": "CCCGGAGG", "PBM E-score": -0.324}
{"sequence": "CACTCTAG", "PBM E-score": -0.0141}
{"sequence": "GATCACAC", "PBM E-score": -0.0314}
{"sequence": "AGGGTTTC", "PBM E-score": -0.247}
{"sequence": "GCTGTCAC", "PBM E-score": -0.108}
{"sequence": "CGGTTCCA", "PBM E-score": -0.211}
{"sequence": "AGAACGGG", "PBM E-score": -0.124}
{"sequence": "CTGAAAAA", "PBM E-score": -0.00669}
{"sequence": "CCTTATTC", "PBM E-score": -0.0963}
{"sequence": "ACAACGTA", "PBM E-score": 0.416}
{"sequence": "ACACCGCC", "PBM E-score": -0.255}
{"sequence": "CGGCCCCG", "PBM E-score": -0.266}
{"sequence": "AGGGTTAC", "PBM E-score": 0.0177}
{"sequence": "AAATCAAT", "PBM E-score": 0.113}
{"sequence": "GCAGGCAA", "PBM E-score": 0.0424}
{"sequence": "CTATCTAA", "PBM E-score": 0.0229}
{"sequence": "CAACCGCG", "PBM E-score": 0.173}
{"sequence": "AACAAGAT", "PBM E-score": -0.0255}
{"sequence": "CGATGCAC", "PBM E-score": -0.0249}
{"sequence": "AGTCCAGG", "PBM E-score": -0.276}
{"sequence": "ATAGGAGA", "PBM E-score": 0.0294}
{"sequence": "GGCCGTAA", "PBM E-score": -0.148}
{"sequence": "AGCTAGAT", "PBM E-score": 0.0295}
{"sequence": "CCCCTTGA", "PBM E-score": -0.226}
{"sequence": "TAGGTTCA", "PBM E-score": -0.0685}
{"sequence": "ATCCACAC", "PBM E-score": -0.117}
{"sequence": "TACTTCCA", "PBM E-score": 0.0806}
{"sequence": "CGTCGGTC", "PBM E-score": 0.164}
{"sequence": "AAGTGTCG", "PBM E-score": 0.00605}
{"sequence": "ACTAATCG", "PBM E-score": -0.0228}
{"sequence": "CGCGCTAG", "PBM E-score": -0.081}
{"sequence": "GAGCACGA", "PBM E-score": -0.103}
{"sequence": "GATGATCA", "PBM E-score": 0.0279}
{"sequence": "GCCATACA", "PBM E-score": 0.0456}
{"sequence": "ACTAGGGG", "PBM E-score": -0.396}
